# Measured values taken from PubChem BioAssay AID686978 (National Center for Advancing Translational Sciences (NCATS), 2013).
# Hit rate of the full screen: of about 420,000 compounds, about 64,000 (15%) were called active. Inconclusive results, whose numbers are uncertain, are shown with a selection of clear calls. Calls follow the shape of the dose curve; as a rule, active = well fitted inhibition curve with a large enough effect; inconclusive = small, poorly fitted or top-dose-only effect; inactive = flat fitted curve, though single readings scatter. No potency is given beside an inconclusive call; the fits are too rough.
# Assay: qHTS for Inhibitors of human tyrosyl-DNA phosphodiesterase 1 (TDP1): qHTS in cells in absence of CPT; also: nearly all actives have a fitted effect of over 55% in size
# Conditions: DT40 Tdp1-/- hTDP1 cells, no CPT, ATP luminescence, 48 h; activity change, negative = growth inhibition: at 46.2 µM (top of the series) unless noted
# In short: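 Seeded 400 DT40-hTDP1 cells/well (vehicle DMSO, no 20 nM CPT); pinned compounds; ≥48 hr at 37 °C; CellTiter-Glo luminescence as viability measure.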
# % is scaled to controls: 0 for no effect and ±100 for the full control effect; potency is read from the fitted curve at half-maximal effect; tags tell the direction and shape of the fitted curve.
SMILES,Potency,"activity change, negative = growth inhibition"
C=CCOc1ccccc1/C=N/NC(=O)c1ccc(Cl)cc1Cl,"inconclusive [inhibitor, partial curve]",–
O=C(c1ccncc1)N1CCC2(CC1)CCN(c1ccccc1)CC2,"inconclusive [inhibitor, partial curve]",–
Cn1c(=O)c2c(nc3n(-c4ccc(O)cc4)c(-c4ccc(Br)cc4)cn23)n(C)c1=O,inactive,–
CCc1ccc([C@@H]2C[C@H]3[C@@H](CN2S(=O)(=O)c2ccc(C)cc2)C(=O)C[C@@H](c2cccc(Cl)c2)N3S(=O)(=O)c2ccc(C)cc2)cc1,"inconclusive [inhibitor, full curve, poor fit]",–
O=C(Nc1cccc(F)c1)c1c(O)c2ccccc2[nH]c1=O,inactive,–
COCCNc1nc(Nc2ccc(C#N)cc2)c2sccc2n1,active: 16.4 µM,–
CCOC(=O)CC1C(=O)NCCN1C(=O)c1sc2ccccc2c1Cl (configuration not stated),inactive,–
COc1ccc(OC)c(S(=O)(=O)NCc2cccn2Cc2cccc(C)c2)c1,"inconclusive [inhibitor, single point]",–
CC(Sc1nnc(CN2CCCC2)n1Cc1ccccc1)C(=O)Nc1ccc(F)cc1Cl (configuration not stated),active: 25.9 µM,–
CC1=C(C(=O)Nc2cccnc2)C(c2ccc(Cl)cc2)n2nc(-c3ccccc3)nc2N1 (configuration not stated),–,inconclusive: -30.7% [inhibitor]
Clc1ccc(OCCN2CCN(c3ncnc4sccc34)CC2)cc1,active: 0.58 µM,–
COc1ccc(Cc2c(C3CCCCC3)nc3c(C)cc(Br)cn23)c(C)c1,active: 2.59 µM,–
Cc1ccc(C)c(NC(=O)CSc2c3c(nc4ccc(Cl)cc24)CCCC3)c1,active: 20.6 µM,–
O=C(CCCCCNC(=O)N1CCn2c1nc1ccccc12)NCc1ccccc1,"inconclusive [inhibitor, single point]",–
COc1ccc(CC(=O)Nc2cccc(-c3nnc(-c4cccc(C)c4)o3)c2)cc1OC,active: 23.1 µM,–
O=C(NC1CCCCCC1)c1c(O)c2ccccc2[nH]c1=O,"inconclusive [inhibitor, partial curve]",–
COc1ccc(C2C(C(=O)N3CCC(C)CC3)c3ccccc3C(=O)N2C)cc1 (configuration not stated),inactive,–
COc1ccc(OCc2nc3c4c(-c5ccccc5)c(-c5ccccc5)oc4ncn3n2)cc1,inactive,–
COc1ccc(CCNC(=O)c2cc(S(=O)(=O)N3CCOCC3)ccc2F)cc1,"inconclusive [inhibitor, single point]",–
COc1ccc(CNC(=O)COC(=O)c2ccc(S(=O)(=O)N3CCOCC3)cc2)cc1,inactive,–
COc1ccccc1NC(=O)CSc1nc2ccccc2c2nc(-c3ccccc3)nn12,inactive,–
COc1ccccc1C(=O)NNC(=O)CCCN1C(=O)/C(=C/c2cccs2)SC1=S,"inconclusive [inhibitor, single point]",–
[2H]C(CCOS(N)(=O)=O)c1ccccc1 (configuration not stated),inactive,–
COc1ccc(S(=O)(=O)N2CCC(C(=O)N[C@@H](C)C(=O)NCc3cccnc3)CC2)cc1,inactive,–

SMILES,Potency,"activity change, negative = growth inhibition"
O=c1c2cc([N+](=O)[O-])ccc2nc(CN2CCN(c3ccccn3)CC2)n1-c1ccccc1F,active: 14.6 µM,–
Cc1cc(C)cc(NC(=O)CCN2CCCC2)c1,inactive,–
COc1ccc(-c2nn(-c3ccccc3)cc2/C=N/NC(=O)c2cccc(S(=O)(=O)Nc3ccccc3Cl)c2)cc1,"inconclusive [inhibitor, single point]",–
Cc1cc(=O)n2[nH]c(C(F)(F)F)c(-c3ccccc3)c2n1,"inconclusive [inhibitor, partial curve, poor fit]",–
CC(=O)c1c(O)c2ccccc2n(C)c1=O,inactive,–
CS(=O)(=O)Nc1ccc2[nH]c(=O)[nH]c2c1,"inconclusive [inhibitor, single point]",–
O=C(N/N=C/c1cc2c(cc1Br)OCO2)c1cccnc1,"inconclusive [inhibitor, single point]",–
CC(=O)CCC(=O)N1CCC(n2nccc2NC(=O)c2ccccc2C)CC1,inactive,–
COc1ccc(Nc2nc(N3CCCC3)nc(N3CCCC3)n2)c(OC)c1,"inconclusive [inhibitor, single point]",–
O=C(CCNC(=O)c1ccco1)NCCN1C(=O)S/C(=C\c2ccc(F)cc2)C1=O,"inconclusive [inhibitor, single point]",–
CCc1ccc2c(c1)C1(NN=C(c3ccc(C)cc3)S1)C(=O)N2 (configuration not stated),active: 8.2 µM,–
c1ccc(CN2CCN(c3ncnc4nc[nH]c34)CC2)cc1,"inconclusive [inhibitor, partial curve, poor fit]",–
CCOc1ccc(NC(=O)c2ccccc2NS(=O)(=O)c2ccc(F)cc2)c([N+](=O)[O-])c1,"inconclusive [inhibitor, single point]",–
CCc1cccc(NC(=O)Cn2c(=O)c3cccn3c3ccccc32)c1,"inconclusive [inhibitor, single point]",–
CCc1nnc(NC(=O)CSc2ccc(-c3ccco3)nn2)s1,inactive,–
COc1cc(NC(=O)C2=C(C)OCCS2)c(Cl)cc1C(=O)NCCN1CCN(C)CC1,"inconclusive [inhibitor, single point]",–
O=C(Nc1ccccc1)Nc1ccc2ccccc2c1,inactive,–
Nc1[nH]c(C(=O)c2ccccc2)c(-c2ccc([N+](=O)[O-])cc2)c1C(=O)NCCc1c[nH]c2ccccc12,active: 14.6 µM,–
O=C(NCC(=O)N1CCN(c2cccc(Cl)c2)CC1)c1ccc(Br)o1,"inconclusive [inhibitor, partial curve]",–
CCOC(=O)c1ccc(NS(=O)(=O)c2cc(-c3onc(C)c3C)ccc2C)cc1,"inconclusive [inhibitor, single point]",–
Cc1cccc(CNC(=O)CSCc2cnn(-c3ccccc3)c2-n2cccc2)c1,"inconclusive [inhibitor, single point]",–
CC(C)C(NC(=O)c1cccc(S(=O)(=O)N2CCOCC2)c1)C(=O)NCc1ccc(Cl)cc1 (configuration not stated),"inconclusive [inhibitor, single point]",–
CCn1c(=O)cc(SCC(=O)NCc2ccc3c(c2)OCO3)c2ccccc21,inactive,–
Cn1c(=O)c2cc(NC(=S)NC3CCCCC3)ccc2n1C/C=C/c1ccccc1,inactive,–

SMILES,Potency,"activity change, negative = growth inhibition"
O=C(CSc1nc2ccccc2c(=O)n1-c1ccc(F)cc1)Nc1ccc(Cl)c(S(=O)(=O)N2CCOCC2)c1,active: 16.4 µM,–
O=S(=O)(O)CCS,"inconclusive [inhibitor, single point]",–
COC(=O)c1c(NC(=O)Cc2ccccc2)sc2c1CCN(C(C)C)C2,"inconclusive [inhibitor, single point]",–
COc1ccc(-n2c(C)cc(/C=C3/SC(=S)N(C)C3=O)c2C)cc1,active: 18.4 µM,–
CCCN1C2=C(C(=O)CCC2)C(c2ccc(O)c(Br)c2)C2=C1CCCC2=O,"inconclusive [inhibitor, partial curve]",–
COc1ccc(CNC(=O)C2CCN(S(=O)(=O)N3CCOCC3)CC2)cc1,inactive,–
C(=C\c1ccnc2ccccc12)/c1ccc(N2CCNCC2)cc1,active: 14.1 µM,–
COc1cc(/C=C/C(=O)OCC(=O)N2CCCc3ccccc32)ccc1O,"inconclusive [inhibitor, single point]",–
CC(C)N1CCC(N2CCN(Cc3nc4ccccc4s3)CC2CCO)CC1 (configuration not stated),inactive,–
CCOc1ccc(N(CC(=O)NCCc2ccc(C)cc2)S(=O)(=O)c2c(C)noc2C)cc1,"inconclusive [inhibitor, single point]",–
CCSc1nnc(NC(=O)c2ccc(Br)s2)s1,–,inconclusive: -34.3% [inhibitor]
Cc1ccc(S(=O)(=O)N2C[C@H]3C(=O)C[C@@H](c4ccccc4F)N(S(=O)(=O)c4ccc(C)cc4)[C@H]3C[C@H]2c2ccccc2)cc1,"inconclusive [inhibitor, single point]",–
C[C@H](NS(=O)(=O)c1ccc(Cl)cc1)C(=O)OCC(=O)Nc1cc(S(=O)(=O)N2CCOCC2)ccc1Cl,inactive,–
Cc1ccc(/C=N/NC(=O)c2nnn(-c3nonc3N)c2CN(C)C)s1,inactive,–
CC(C)OC(=O)c1ccc(N2CCN(c3ccccc3F)CC2)nc1,active: 18.4 µM,–
Cc1cc(C)c2c(c1)C(=O)/C(=C/c1ccc(C(=O)O)cc1)CC2,inactive,–
COc1cc(OC)c(C2Nc3c(C)cccc3-c3cc(C)nn32)cc1OC (configuration not stated),"inconclusive [inhibitor, full curve]",–
O=C1c2cccc(OCc3ccc(F)cc3)c2CCN1Cc1ccccc1,"inconclusive [inhibitor, single point]",–
COC(=O)c1ccc(NC(=O)CC2C(=O)N(c3ccc(Cl)cc3)C(=O)N2Cc2ccco2)cc1 (configuration not stated),active: 18.4 µM,–
CCOc1ccc(N(CC(=O)NCCSCc2ccco2)S(=O)(=O)c2ccc(C)cc2)cc1,"inconclusive [inhibitor, single point]",–
CCn1c2ccccc2c2cc(/C=N/n3c(-c4cc(C)[nH]n4)n[nH]c3=S)ccc21,"inconclusive [inhibitor, single point]",–
NC(=S)NNC(=O)COc1ccccc1O,inactive,–
O=C1CCCc2c1[nH]c1ccc(CN3CCCCC3)cc21,"inconclusive [inhibitor, single point]",–
O=C(c1ccc2c(c1)OCO2)N1CCc2ccccc21,"inconclusive [inhibitor, partial curve, poor fit]",–
